# Experimental data published in PubChem BioAssay AID493208 (National Center for Advancing Translational Sciences (NCATS), 2011).
# About 340 (0.77%) of roughly 44,000 compounds were called active. Not shown: some 5% with an inconclusive outcome. Calls come from the whole dose curve; as a rule, active = well fitted inhibition curve with a large enough effect; inconclusive = small, poorly fitted or top-dose-only effect; inactive = flat fitted curve, though single readings scatter. The list shows a part of the results.
# Assay: Acumen qHTS Assay for Inhibitors of the mTORC1 Signaling Pathway in MEF (Tsc2-/-, p53-/-) Cells: Sytravon;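 note: plate controls were DMSO for no effect and rapamycin for full effect; nearly all actives have a fitted effect of over 50% in size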
# Conditions: phospho-rpS6 immunofluorescence/PI, 24 h; series mostly up to 38.3 µM; activity change, negative = inhibition: at the top concentration
# Outline: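 Tsc2-/-, p53-/- MEFs (empty-vector stable line) in DMEM + 10% FBS were treated with compounds 24 h at 37 degree Celsius, fixed, and immunostained for phospho-rpS6 (Alexa-488) with propidium iodide counterstain. Laser-scanning cytometry gave % positive cells, normalized against 7.5 nM rapamycin and DMSO.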
row,SMILES,"activity change, negative = inhibition"
1,Cc1cc(=O)n(Cc2c(F)cccc2Cl)c2c1c(C)nn2C,inactive: -3.27%
2,CCOC(=O)Cn1c(CN2CCN(c3ccc(OC)cc3)CC2)nc2c1c(=O)[nH]c(=O)n2C,inactive: 2.31%
3,COc1ccc(CCNC(=O)Cn2c(-c3ccc(F)cc3)cc(C(C)=O)c2C)cc1OC,inactive: -3.32%
4,COc1ccc2c(c1)CC(C(=O)NCCc1ccc(S(N)(=O)=O)cc1)CO2 (stereo not given),inactive: -4.37%
5,Cc1ccc(C)c(OC(=O)CSc2nnc(-c3cccs3)o2)c1,inactive: 0.666%
6,CCCC(=O)Nc1cc(-c2nnc3c4ccccc4c(C)nn23)ccc1C,inactive: 2.67%
7,COc1cc2ccccc2cc1C(=O)N1CCN(c2nc3c(F)cc(F)cc3s2)CC1,inactive: 1.1%
8,CCOc1ccc(CNC(=O)C2CCCN(c3nn4cc(-c5ccc(F)cc5)nc4s3)C2)cc1 (stereo not given),inactive: -0.522%
9,COc1ccc(N2CCN(CCCNC(=O)c3ccc4nc(Cc5ccccc5)oc4c3)CC2)cc1,inactive: -4.15%
10,COc1ccc(-n2c(=O)c3c(c4cc(OC)ccc4n3C)n(CC(=O)N3CCCC3)c2=O)cc1,inactive: -0.656%
11,CCc1ccc(NC(=O)CCCc2nnc3n(CCCOC)c(=O)c4sccc4n23)cc1,inactive: 4.37%
12,Cc1ccc(NC(=O)C(C)Sc2nc3c(c(=O)[nH]2)CCCC3)cc1Cl (stereo not given),inactive: -0.0954%
13,CSc1cccc(NC(=O)CN2C(=O)CCc3cc(S(=O)(=O)N4CCCCC4)ccc32)c1,inactive: 1.2%
14,Cc1cc(C)cc(NC(=O)c2cccc(C(=O)Nc3cc(C)cc(C)c3)c2)c1,inactive: 16.4%
15,CCOc1ccccc1NC(=O)CSc1ccc2nc(-c3ccccc3)cn2n1,inactive: 1.69%
16,COC(=O)c1ccccc1NC(=O)Cn1c(=O)n(CCCC(=O)NCc2ccccc2Cl)c(=O)c2ccccc21,inactive: 2.37%
17,O=C(Cn1cnc2c(nc3n2CCCCC3)c1=O)Nc1cccc(C(F)(F)F)c1,inactive: -0.105%
18,O=C(COc1ccccc1Cl)N(Cc1cccc(F)c1)C1CCS(=O)(=O)C1 (stereo not given),inactive: 6.28%
19,CCc1cccc(CC)c1NC(=O)Cn1nnc2sc3c(c2c1=O)CCCC3,inactive: -22.5%
20,Cc1ccc(Cc2nc3ccccc3nc2SCC(=O)NCc2ccccc2Cl)cc1,inactive: 0%
21,CCOC(=O)c1c(NC(=O)COc2ccc(C(C)(C)C)cc2)sc2c1CCCC2,inactive: 6.18%
22,Cc1ccc(NC(=O)c2c(C)nn(-c3ccccc3)c2-n2cccc2)c(Cl)c1,inactive: -1.8%
23,Cc1ccc(N2C(=O)CCSC23C(=O)N(Cc2ccc(F)cc2)c2ccccc23)cc1 (stereo not given),inactive: -4.06%
24,CCOc1cccc(C(=O)N(Cc2ccc(F)cc2)Cc2ccco2)c1,inactive: 3.56%

row,SMILES,"activity change, negative = inhibition"
1,O=C1CC(c2ccc(F)cc2F)c2cc3c(cc2N1)OCO3 (stereo not given),inactive: -12.4%
2,COc1ccc(Cl)cc1NC(=O)C1CCN(S(=O)(=O)c2ccc(F)cc2)CC1,inactive: -0.48%
3,COc1ccc(C(=O)N(c2ccc(C)cc2)S(=O)(=O)c2ccc(C)cc2)cc1,inactive: -16.4%
4,COc1ccc(OC)c(NC(=O)Cn2c(=O)n(-c3ccc(Cl)cc3)c(=O)c3c(C)c(C)sc32)c1,inactive: 0.257%
5,Cc1ccc(N2C(=O)CS(=O)(=O)C23C(=O)N(Cc2ccc(Cl)cc2)c2ccccc23)cc1C (stereo not given),inactive: -5.77%
6,COCCn1c(SCC(=O)c2ccc(F)cc2)nc2cc(C(=O)NC3CCCC3)ccc2c1=O,inactive: 3.97%
7,CC1CCN(C(=O)CSc2nnc(NC(=O)Nc3ccccc3)s2)CC1,inactive: 2.77%
8,COC(=O)c1ccccc1NC(=O)Cn1c(CCC(=O)O)ccc1-c1ccc(C)cc1,inactive: 2.25%
9,Cc1ccc2c(c1)N(C(=O)CCC(=O)NCc1cccs1)CC(C)O2 (stereo not given),inactive: -9.2%
10,CCOC(=O)C1CCN(C(=O)Cn2ncc3c4ccccc4n(Cc4ccccc4)c3c2=O)CC1,inactive: -0.0054%
11,Cc1cccc(CC(=O)Nc2c(C(=O)Nc3cccc(F)c3)oc3ccccc23)c1,inactive: 1.38%
12,Cc1ccc(NC(=O)CCSc2nc(-c3ccc4c(c3)OCO4)cc(C(F)(F)F)n2)c(C)c1,inactive: -10.6%
13,CCOc1ccccc1C(=O)NCc1ccc2c(c1)CCN2C(=O)c1ccccc1,inactive: -1.58%
14,Cc1cccc(Nc2nc3c(S(=O)(=O)c4ccc(Br)cc4)nnn3c3ccsc23)c1C,inactive: 4.62%
15,Cc1cc(C)c2oc(-c3cccc(NC(=O)COc4ccccc4Cl)c3C)nc2c1,inactive: 1.53%
16,CC1=C(C(=O)Nc2cccnc2)C(c2ccccc2Cl)n2nc(-c3ccccc3)nc2N1 (stereo not given),inactive: 3.76%
17,Cc1cc(NC(=O)CSc2ncc(C(=O)Nc3ccc(C)c(C)c3)c(=O)n2C)no1,inactive: -8.89%
18,CS(=O)(=O)c1ncc(Cl)c(C(=O)Nc2c(C(=O)c3ccc(Cl)cc3)oc3ccccc23)n1,inactive: 0.637%
19,COc1cccc(-c2nc3c(C#N)c[nH]n3c2NC2CCC(C)CC2)c1 (stereo not given),inactive: -21.6%
20,COc1ccc(CCNC(=O)c2ccc(Cn3c(SCC(=O)NCCC(C)C)nc4cc5c(cc4c3=O)OCO5)cc2)cc1OC,inactive: -4.91%
21,Clc1cccc(-n2ncc3c(NCCCN4CCOCC4)ncnc32)c1,inactive: 14.2%
22,Cc1ccc2nc(CN3CCN(S(=O)(=O)c4ccc(C)c(C)c4)CC3)oc2c1,inactive: 9.74%
23,CC(=O)c1c(C)n(-c2ccc(C)cc2)c2ccc(OC(=O)COc3ccccc3)cc12,inactive: -11.3%
24,O=C(Nc1ccc2oc(-c3ccc4ccccc4c3)nc2c1)c1cc(Cl)ccc1Cl,inactive: 4.84%

row,SMILES,"activity change, negative = inhibition"
1,Cc1ccc(C2CC(=O)n3nc(-c4cccc(C)c4)nc3S2)cc1 (stereo not given),inactive: 3.87%
2,COc1cc(-c2ccno2)ccc1S(=O)(=O)N1CCN(c2ccccc2)CC1,inactive: -8.74%
3,CC(C)C(=O)Nc1nnc(SCc2cc(=O)n3ccccc3n2)s1,inactive: -13.7%
4,CN(C)c1ccc(CNC(=O)C2CCN(S(=O)(=O)c3ccc4[nH]c(=O)ccc4c3)CC2)cc1,inactive: -1%
5,CC(C)C(=O)Nc1cccc(C(=O)Nc2nnc(C(F)(F)F)s2)c1,inactive: -3.24%
6,CCOc1ccccc1NC(=O)CCc1c(C)nc2cc(-c3ccccc3)nn2c1C,inactive: -5.43%
7,Cc1ccc(NC(=O)CN(c2ccc(C)cc2)S(=O)(=O)c2cccc3nonc23)cc1,inactive: 5.62%
8,CCOCCCn1c(=N)c(C(=O)NCc2ccccc2)cc2c(=O)n3ccccc3nc21,inactive: -1.13%
9,COc1cccc(NC(=O)Cn2c(=O)n(CCc3cccc(C)c3)c(=O)c3ccccc32)c1,inactive: 0.771%
10,Cc1c2cnn(-c3ccccc3)c(=O)c2c(C)n1C(C)C(=O)NCc1cccc(Br)c1 (stereo not given),inactive: -8.6%
11,Cc1cccc(NC(=O)c2c(NC(=O)c3ccco3)sc3c2CCC(C)C3)c1 (stereo not given),inactive: -1.12%
12,Cc1ccc(NC(=O)Cn2nc(-c3ccccc3)nc(Cc3ccccc3)c2=O)cc1,inactive: 5.16%
13,COc1cccc(CNC(=O)c2ccc3c(c2)nc2n3CCC(C)C2)c1 (stereo not given),inactive: 5.15%
14,COc1ccc(-n2nc(-c3ccc(C)cc3)c3cnc4cc(F)c(F)cc4c32)cc1,inactive: 0.47%
15,Cc1ccccc1C(=O)Nc1ccccc1-c1nc(-c2ccccc2)no1,inactive: -2.27%
16,Cc1nc(-c2cccc(F)c2)sc1CCNC(=O)C(=O)Nc1ccc2c(c1)OCCO2,inactive: 0.522%
17,CCc1nc2nc(C)c(NS(=O)(=O)c3ccc(F)c(C)c3)c(=O)n2[nH]1,inactive: 1.73%
18,CCOc1ccc2nc(N3CCCC(C(=O)NCCc4ccc(C)cc4)C3)sc2c1 (stereo not given),inactive: -5.75%
19,Cc1ccc(NC(=O)CSc2nc3ccccc3n2CC(=O)N(C)C2CCCCC2)cc1C,inactive: 0%
20,CC(C(=O)Nc1ccccc1)n1nnc2sc3c(c2c1=O)CCCC3 (stereo not given),inactive: -1.89%
21,CCCCn1c(CNC(=O)C23CC4CC(CC(C4)C2)C3)nnc1SCC(=O)Nc1ccc(F)cc1,inactive: -2.7%
22,Cc1cccc(NC(=O)Nc2nnc(N3CCCC3)s2)c1,inactive: -0.473%
23,Cc1cccc(Cn2c(=O)n(Cc3ccccc3)c(=O)c3sc4ccccc4c32)c1,inactive: 0.652%
24,Cc1cc(C(=O)NCc2ccccc2)c2c(C)nn(-c3cccc(Cl)c3C)c2n1,inactive: -10.5%

row,SMILES,"activity change, negative = inhibition"
1,Cc1ccc(NC(=O)C2CCCN2S(=O)(=O)c2ccc3nc(-c4ccccc4)[nH]c3c2)cc1C (stereo not given),inactive: -29.4%
2,Cc1ccc(S(=O)(=O)C(CNS(=O)(=O)c2ccc(F)c(C)c2)c2cccs2)cc1 (stereo not given),inactive: -3.86%
3,O=C(NCCS(=O)(=O)N1CCN(c2ccccc2F)CC1)C1CC(=O)N(c2ccc(F)cc2)C1 (stereo not given),inactive: -5.18%
4,CCc1ccccc1N(CC)C(=O)Cn1nc(Cc2ccncc2)c2ccccc2c1=O,inactive: 2.49%
5,Cc1ccc(OCC(=O)Nc2cccc3ccc(C)nc23)c(C)c1,inactive: -5.72%
6,Cc1cccc(NC(=O)COc2ccc3oc4c(c3c2)CCCC4)c1,inactive: 6.54%
7,COc1ccc(CNC(=O)C(=O)NCC(c2cccs2)S(=O)(=O)c2cccs2)cc1 (stereo not given),inactive: 1.47%
8,O=C(CCc1nc(-c2cccs2)no1)Nc1ccc([N+](=O)[O-])cc1,inactive: -0.356%
9,O=C(NCc1ccccc1Cl)c1ccc(-n2cnc3cccnc32)cc1,inactive: 1.51%
10,CCOc1ccccc1NC(=O)Cn1nc(N2CCN(c3ccccc3)CC2)ccc1=O,inactive: -2.69%
11,Cn1c(/C(C#N)=C/c2ccc(C(F)(F)F)cc2)nc2ccccc21,inactive: 8.09%
12,Cc1cn2c(=O)c(S(=O)(=O)NCc3ccc(F)cc3)c(C)nc2s1,inactive: -0.834%
13,Cc1ccc(CNC(=O)CSCc2nc(-c3cccc(C)c3)oc2C)cc1,inactive: 3.24%
14,O=C(CCC1N=C2c3ccccc3N=C(SCC(=O)NCCc3ccccc3)N2C1=O)NCc1ccc(F)cc1 (stereo not given),inactive: -0.955%
15,CCC(NC(=O)Nc1cccc(C)c1)c1c(-n2cccc2)sc2c1CCN(C)C2 (stereo not given),inactive: 0%
16,CCOc1ccc(OCC)c(NC(=O)C2CCCN(S(=O)(=O)c3ccc(C)cc3)C2)c1 (stereo not given),inactive: -7.04%
17,CCCN(CCC)C(=O)Cn1c(=O)n(-c2ccc(Cl)c(Cl)c2)c(=O)c2c(C)c(C(=O)N(C)C)sc21,inactive: -0.034%
18,O=C(Cn1c(=O)n(-c2ccccc2Cl)c(=O)c2sc3ccccc3c21)NC1CCCC1,inactive: 3.38%
19,CCOc1ccc(-c2nnc(SCC(=O)N(CC)c3cccc(C)c3)o2)cc1,inactive: -3.88%
20,Cc1ccn2c(Nc3ccc4c(c3)OCCO4)c(-c3ccc(N(C)C)cc3)nc2c1,inactive: -5.55%
21,COc1ccccc1CNC(=O)CSc1cc(C)[nH]c(=O)n1,inactive: 0.269%
22,COc1ccc(-c2c(C)nn3c(N4CCN(c5cc(Cl)ccc5C)CC4)cc(C)nc23)cc1OC,inactive: -18.4%
23,COCCCNC(=O)C1CCN(c2nc3ccc(Cl)cc3[nH]2)CC1,inactive: -19.9%
